Experimental data published in PubChem BioAssay AID760 (NMMLSC, 2007).
The campaign covered roughly 190,000 compounds. About 360 (0.19%) were called active. This list was built around the results that the source calls inconclusive (neither active nor inactive); the mix of calls is not that of the screen.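 The calls were made as follows: active = GTP binding activity at least 20 points away from 100%, either lowered or raised; inconclusive = signal likely due to the compound's own green fluorescence; inactive = the rest.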

Target: Ras-related protein Rab-2A (Canis lupus familiaris) (UniProt P61105)
Test: Rab2 wt fluorescent GTP binding changes, either direction – biochemical, dog, bead-based flow cytometry, multiplex, primary screen (AID 760);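 also: 0% = beads with excess unlabeled GTP and 100% = no-compound control corrected for plate trend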
Settings: GST-Rab2 wt beads, Bodipy-GTP binding, at 10 µM

GTP binding activity, inactive:
COc1cc2[nH]c(=S)nc(NCc3ccccn3)c2cc1OC 82%, COc1ccc(S(=O)(=O)Nc2cccc(F)c2C)cc1C(=O)N1CCOCC1 98%, Cc1sc(-c2ccncc2)nc1OC(=O)c1ccc(F)cc1F 95%, CCOc1cc(/C=N/Nc2nc(N3CCCCC3)nc(N3CCCCC3)n2)ccc1OC(=O)c1ccco1 96%, CCCc1cc(NCc2ccccn2)n2c(nc3ccccc32)c1C#N 83%, CC1=Nc2ccccc2N=C(NC(=O)c2ccccc2)C1c1ccccc1 (configuration not stated) 95%, CN1CCN(Cc2nc3ccccc3c(=O)n2Cc2nc(-c3ccccc3F)cs2)CC1 96%, CCOc1ccc(OCCOCCNCCOC)cc1 100%, N#C/C(=C\c1ccco1)c1nc2ccccc2s1 99%, CCc1ccc(NC(=O)C(=O)NCc2ccccn2)cc1 98%, Cc1ccc(-c2nn(C)c(=O)c3ccccc23)cc1CNC(=O)c1ccco1 109%, S=C(NCc1ccc(Cl)cc1)NN1CCOCC1 96%, CC1C/C(=N/NC(=O)c2cccc(F)c2)c2ccc(O)cc2C1 (configuration not stated) 100%, Cc1ccc(-c2nnc(N3CC(C)OC(C)C3)c3ccccc23)cc1 (configuration not stated) 101%, CN(C)c1cc[n+](CC(=O)Nc2ccc(Oc3ccccc3)cc2)cc1 100%, CC(NCC(O)COCCC12CC3CC(CC(C3)C1)C2)c1ccccc1 (configuration not stated) 98%, O=C(Cc1ccc(Cl)cc1)Nc1ccc(SC(F)F)cc1 98%, Cn1c(-c2cnn(-c3ccccc3)c2-n2cccc2)n[nH]c1=S 101%, CC(=O)NC(CCCN1C(=O)c2ccccc2C1=O)c1nnn(C)n1 (configuration not stated) 99%, CCOc1ccc(CCNC(=O)C2CCCN2C(=O)OCc2ccccc2)cc1OCC (configuration not stated) 103%, O=C(O)C1=C[C@@H](c2ccccc2)C[C@@H](OCc2ccc(CO)cc2)O1 94%, CC(=O)Nc1ccc(NC(=O)c2ccccc2C)cc1 102%, Cn1cc(Br)c(C(=O)N/N=C/c2cccc(OC3CSC3)c2)n1 102%, COc1cc(NC(=O)COC(=O)Cc2ccc(-c3ccccc3)cc2)cc(OC)c1 97%, CCS(=O)(=O)CCSC(=N)N 102%, O=C(N/N=C/c1cccc([N+](=O)[O-])c1)c1ccccc1-n1cccc1 101%

GTP binding activity, active:
COc1ccc(OC)c(/C=N/NC(=O)c2ccc(Cn3cc([N+](=O)[O-])cn3)o2)c1 78%, O=C(O)c1cccc(-n2cccc2/C=C2/NC(=O)N(c3ccc(Cl)cc3)C2=O)c1 75%, COc1ccc(-c2noc(CCC(=O)N3CCN(c4cc(C)ccc4C)CC3)n2)cc1 78%, COc1ccc(/C=C2\CCCC3C2=NN(C(=O)c2scnc2C)C3c2ccc(OC)c(OC)c2)cc1OC (configuration not stated) 66%

GTP binding activity, inconclusive:
OCC(CO)(CO)NCc1ccc(-c2ccccc2)cc1 216%, O=C(/C=C/c1ccc(Cl)cc1Cl)NCCSc1ccccc1 91%, COC(=O)c1cc(-c2ccccc2)sc1NC(=O)CN1C(=O)c2ccccc2C1=O 107%, O=C(N/C(=C\c1ccccc1)C(=O)N1CCCCCC1)c1ccccc1 96%, CCS(=O)(=O)N1CCC(C(=O)NCCCOC)CC1 107%, Cc1sc2nc(CN3CCOCC3)[nH]c(=S)c2c1C 90%, CCN(CC)S(=O)(=O)c1ccc2nc(NC(=O)c3cccs3)sc2c1 87%, COC(=O)[C@H](C)[C@H]1C[C@]1(C)[C@H](NC(=O)OCc1ccccc1)c1ccccc1 102%, O=C(NCc1ccccn1)C(=O)N/N=C/c1ccc2c(c1)OCO2 96%, CCN1CCN(c2ncc(C(=O)Nc3c(F)cc(F)cc3Br)c3ccccc23)CC1 101%, CC(C)CNC(=O)c1nc(-c2ccccc2)n(-c2ccccc2)n1 99%, CCOC(=O)C1=C(CSc2nc(C)ccc2C#N)OC(N)=C(C#N)C1c1cccc(OC)c1OC (configuration not stated) 100%, Cc1cccc(-n2c(C)nc3cc(C(=O)NCc4ccc5c(c4)OCO5)ccc32)c1 87%, COCCN(C(=S)Nc1ccc(C(C)C)cc1)C(C)c1cccs1 (configuration not stated) 91%, O=Cc1c(NCc2ccco2)nc2ccccn2c1=O 92%, COc1ccc(-c2csc(NC(=S)NC(=O)c3cccs3)n2)cc1OC 77%, COc1ccc(NC(=O)c2ccco2)cc1N 102%, Cc1cc2nc(-c3ccc(SCC(=O)Nc4nccs4)nc3)[nH]c2cc1C 96%, c1ccc(OCc2nc3ccccc3[nH]2)cc1 107%, Cc1ccccc1/C=C1\SC(=S)N(/N=C/c2cc([N+](=O)[O-])ccc2O)C1=O 79%, Nc1nc(-c2ccc(Cl)cc2)nn1C(=O)c1cccnc1 102%, O=C1Nc2ccc(NS(=O)(=O)c3cccs3)c3cccc1c23 93%, CN(Cc1cccnc1)C(=O)CC1C(=O)NCCN1Cc1ccc(-c2ccccc2)cc1 (configuration not stated) 91%, O=C(CSc1nnc(NC(=O)c2ccccc2Cl)s1)Nc1ccc2c(c1)oc1ccccc12 83%, Cc1ccc(S(=O)(=O)CCSc2nc(C)cc(C(F)(F)F)c2C#N)cc1 115%, COc1ccccc1NC(=O)CN1CCN(C2c3ccccc3-c3ccccc32)CC1 93%, CCn1c(SCC(=O)Nc2nc3ccccc3s2)nnc1-c1ccc(Br)cc1 107%, Cc1ccc(NC(=O)C2CC(=O)N(c3ccc4c5c(cccc35)CC4)C2)cc1 (configuration not stated) 90%, CCCOc1ccc(N2CC(C(=O)Nc3ccccc3C(=O)NCc3ccco3)CC2=O)cc1 (configuration not stated) 90%, COc1ccc(NC(=O)CSc2ccc3c4c(cccc24)C(=O)c2ccccc2-3)cc1 114%, CCC(C)n1c(/C=C/c2ccccc2)nc2ccccc21 (configuration not stated) 101%, Cc1cc(C)cc(-c2nnc(SCC(=O)c3ccc4c(c3)OCCO4)o2)c1 86%, CC(C)c1ccc(NC(=S)NCc2ccc3c(c2)OCO3)cc1 94%, O=C(CSc1nc2ccccc2c(=O)n1-c1ccccc1)NC(=O)CN1CCCC1=O 96%, O=C(O)c1ccccc1S(=O)(=O)Cc1ccccc1 103%, COc1ccc(NC(=O)/C(C#N)=C\c2ccc(OCc3ccc(C(=O)O)cc3)c(OC)c2)cc1 83%, Cn1c(=O)n(Cc2ccccc2F)c(=O)c2c1nc1n2CCN1Cc1ccco1 79%, O=C(Cn1cnc2cc([N+](=O)[O-])ccc2c1=O)NCCc1ccc(Cl)cc1 74%, CCOc1ccc(C2=Nn3c(nnc3-c3ccccn3)SC2)cc1 82%, Cc1cccc(C(=O)NNC(=O)c2ccccc2)c1 95%, O=S(=O)(c1cccc(-c2nc3n(n2)Cc2ccccc2-3)c1)N1CCCCC1 88%, CCn1c(SCC(=O)Nc2ccccc2N2CCCCC2)nc2c1c(=O)n(C)c(=O)n2C 92%, Nc1nonc1NC(=O)CSc1ncccc1C(=O)O 102%, Cc1cccc(N2C(=O)c3cccnc3C2=O)c1 102%, COc1cccc(C(=O)CSc2nnc(CNc3nc(-c4ccccc4)cs3)n2C)c1 95%, CCn1nnnc1SCC(=O)N(C1CCCCC1)C1CCCCC1 94%, O=C(C/C=N/OCc1c(Cl)cccc1Cl)c1cnc(-c2ccccc2)s1 93%, CC1(C)OC(=O)C(=Cc2ccc(-c3ccc(Cl)c(C(=O)O)c3)o2)C(=O)O1 89%, CCOC(=O)c1ccc(NC(=O)CCc2ccc(CC)o2)cc1 105%, Cn1nnnc1SCC(=O)Nc1ccccc1N1CCCCC1 101%, CCOC(=O)C1CCCN(Cc2cccc(Cl)c2)C1 (configuration not stated) 100%, COc1ccc(-c2cnc3c(c2)CCC3(C#N)C#N)cc1 94%, COc1ccc(-n2c(C)cc(C(=O)CN3C(=O)C(=O)N(Cc4ccccc4)C3=O)c2C)cc1 82%, O=C(Cn1cnc2sc(-c3ccccc3)cc2c1=O)NCc1ccco1 103%, COC(=O)c1cc(NC(=O)c2ccccc2)c(=O)oc1/C=C/Nc1ccc(Oc2ccccc2)cc1 355%, O=C(CN1C(=O)COc2ccccc21)N1CCc2ccccc21 107%, COc1ccc(Cl)cc1N(CC(=O)NCC(C)C)S(=O)(=O)c1ccc(C)c([N+](=O)[O-])c1 102%, Cc1ccc(OCC(=O)N/N=C\c2c(C)[nH]n(-c3ccccc3)c2=O)c([N+](=O)[O-])c1 94%, CC(C)CSc1n[nH]c(=S)s1 93%, Cc1ccc(C)n1-c1ccc(C(=O)N2CCOCC2)cc1 101%, CC1CC(C)CN(CC(=O)N2CCCc3c2c(=O)oc2ccc(OCc4ccccc4)cc32)C1 (configuration not stated) 82%, O=C(CCCN1C(=O)/C(=C/c2cccc(Br)c2)SC1=S)Nc1ccccn1 89%
